Measured values reported in the supplement of paper PMC11417369.
± gives the standard deviation of the averaged measurements. This is one part of the list.

tested on: PfAP2-LT AP2 domain (GST-tagged); test: gcPBM binding intensity (ln(normalized median fluorescence intensity)); higher = stronger DNA binding
Method in brief: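 Using an Agilent 4 × 180k array, primer-extended double-stranded 36-bp intergenic genomic probes and negative controls were exposed for 1 h to GST-fused P. falciparum DNA-binding domains expressed in E. coli. Binding was carried out in 1× PBS with 1% milk, 0.2 mg/ml BSA, 0.5% salmon testes DNA and 0.03% Triton X-100, and protein was detected with Alexa488 anti-GST antibody and a 488 nm scan. Binding intensity is the highest Masliner-normalised natural-log median intensity across replicate spots of either probe orientation.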

Point of comparison: “GTATATAATTTATATTGTACGCATATTATTATCATT [XGTACX_site7277]”, “gcPBM binding intensity (ln)” value 8.84 ± 0.35. Against it:
- TTAAAAGTAAGCAAAGTGCATATAACAAAAGTAAAG — within error, 8.96 ± 0.48
- TAAAATAAAAAAGTAGTACACACTTCACGATATTTT [CACACA_site3896] — within error, 8.82 ± 0.43
- ATTAATAATGAAAAAAAACACACGGTACATTCAAAG [CACACA_site1302] — within error, 9.03 ± 0.52
- TATATAAGAACTTTTACACACATGAAAATGTAGATA [CACACA_site7711] — the same, 8.84 ± 0.39
- TATATATATATATATACACACATACAGATATATATT [CACACA_site4629] — within error, 9.5 ± 0.38
- ATATACACATATACATGTACAAATATATATACACAT [XGTACX_site2986] — within error, 9.09 ± 0.39
- CACTAAAAGAAACACACACACACACCCATATATATA [CACACA_site4151] — higher, 10.2 ± 0.23
- TTACTATTATTATTTTTTATTTTTATTTTATTTATT [TGCATGCA_negctrl_site269] — within error, 8.61 ± 0.64
- TTGTAAGAAAGACACACACACACATATAAATATGTA [CACACA_site6516] — higher, 9.81 ± 0.23
- TATTTAAAATAATGTGCAAAAGAATAAATAAATAAA [TGCATGCA_negctrl_site194] — the same, 8.84 ± 0.52
- TTCATTTTCATATATTGTACAAAATTTTATAAGGTT [XGTACX_site4522] — within error, 8.57 ± 0.42
- ATATATATATATAATACACACTAAAGTAACATAATA [CACACA_site5580] — within error, 9.04 ± 0.3
- TGTATATAATCGAGTGCACACACAAAAAAAAAGTGA [CACACA_site8417] — within error, 9.44 ± 0.47
- TTCATGTCCTATTAATGTACTCTACACACATATAAG [XGTACX_site899] — within error, 9.08 ± 0.45
- AAAAAAAAAAAAAAAACACACACATATATATATATA [CACACA_site8571] — higher, 9.72 ± 0.29
- ATTTTATATACACTTTGTACTTATTTTATTCTTCTT [XGTACX_site4200] — within error, 9.06 ± 0.56
- TTTATTTATTTTTGTTGTACACTTGTATATATTATT [XGTACX_site6486] — within error, 9.1 ± 0.47
- TACGCAACCAAAAGTTGTACTAATTTTTTTTTTTTG [XGTACX_site7432] — within error, 8.54 ± 0.47
- GGAACAAATAATATCACACATATATATATATATATA [CACACA_site5670] — higher, 10.2 ± 0.41
- ATATATTTTATACATACACACATATAAATATTTTTT [CACACA_site7780] — within error, 8.88 ± 0.43
- TAATAAATATATTGAAGTACTTATAAAAAGCAATAT [XGTACX_site6262] — within error, 8.82 ± 0.45
- TTTTTTAATACATATGCATGTTCAAGTACGAAAAAA [TGCATGCA_site641] — within error, 8.33 ± 0.37
- TACGGGAAAGATAAGAAACACACGGAAAATTAGACG [CACACA_site1661] — within error, 9.12 ± 0.55
- TATTAAACTTGACACACACACACACGCATATATAAA [CACACA_site6496] — higher, 10.1 ± 0.14
- ATTTCTATATATTGTGCATGCCATTACACCAAATAT [TGCATGCA_site813] — within error, 9.15 ± 0.43
- AGAATTTAGAAACAATGTTGTATATGTAATACCTTT [XGTACX_negctrl_site149] — within error, 8.71 ± 0.4
- TATATATATAAAAAAAGTACGTATTTAATAAAAATA [XGTACX_site4992] — within error, 8.78 ± 0.46
- GATATTATGTGTTTGGTATTTCGATCTTGTCAGGAC [CACACA_negctrl_site426] — within error, 8.93 ± 0.41
- AAAAAAAAAAAAAAAACACACAAACAAATGAATAAA [CACACA_site5769] — within error, 8.89 ± 0.5
- AATATACAAATTACAAGTACAAATCAATATTATATG [XGTACX_site7521] — within error, 8.9 ± 0.42
- TCATTTTACAGATGTGCATGTGAATCAATCTATTTA [TGCATGCA_site787] — within error, 8.7 ± 0.39
- TGTAGTTTTTATTTATGTACGCATAACATAATTTAA [XGTACX_site104] — within error, 8.71 ± 0.45
- TATATATATAAATACACACACACATATATATATATA [CACACA_site4585] — higher, 9.86 ± 0.18
- ATCATACCTTTTAATGTACACACATTTCTTTTTTGT [CACACA_site8198] — within error, 9.56 ± 0.48
- TATATAAATAAAAAAAGTACATTACTTTTTAATTTA [XGTACX_site285] — within error, 8.27 ± 0.4
- TAGTATGATAACTTGGGTACATAAATATGGAGTATC [XGTACX_site1296] — within error, 8.93 ± 0.52
- TTCATTTTATTTTAAGTGCATATTTTTATTTTTTTG — within error, 8.64 ± 0.47
- TTTTTAATTCAAAAAACTGTATGTTATATGTCAAAT [CACACA_negctrl_site72] — within error, 8.32 ± 0.45
- AGAAAGGATATTATATGTACATATCTTTGTATTTTT [XGTACX_site5040] — within error, 8.93 ± 0.46
- CATACCCATAAACACACACACATATATACCTATATA [CACACA_site4745] — higher, 9.69 ± 0.39
- ACTATACAGTTATACACACACATATATCTATAATAT [CACACA_site6283] — within error, 9.3 ± 0.3
- ATACATATATATATATGTACATATGTATTTTTTATT [XGTACX_site105] — within error, 9.01 ± 0.41
- TTTACATATTTATATACACACTTTTGCGTGCGTGGT [CACACA_site6647] — within error, 9.26 ± 0.54
- AATAAAATATATTCCTGTACATATGATTCTTTTTTT [XGTACX_site7980] — within error, 8.68 ± 0.49
